# Data taken from PMC4336329 (PLoS ONE, 2015).
# Out of some 310,000 compounds screened, about 14,000 (4.5%) showed an effect of 50% or more. The effect is printed as a negative number. Some of the results follow.
# Molecular target: human ether-à-go-go-related gene (hERG) potassium channel (human, UniProt Q12809)
# Assay: primary screen, population patch clamp on CHO cells stably expressing hERG
# 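Note: peak tail current of the secondary pulse compared with the same well before compound.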
# human ether-à-go-go-related gene (hERG) potassium channel, sequence (Q12809 whole entry, looked up): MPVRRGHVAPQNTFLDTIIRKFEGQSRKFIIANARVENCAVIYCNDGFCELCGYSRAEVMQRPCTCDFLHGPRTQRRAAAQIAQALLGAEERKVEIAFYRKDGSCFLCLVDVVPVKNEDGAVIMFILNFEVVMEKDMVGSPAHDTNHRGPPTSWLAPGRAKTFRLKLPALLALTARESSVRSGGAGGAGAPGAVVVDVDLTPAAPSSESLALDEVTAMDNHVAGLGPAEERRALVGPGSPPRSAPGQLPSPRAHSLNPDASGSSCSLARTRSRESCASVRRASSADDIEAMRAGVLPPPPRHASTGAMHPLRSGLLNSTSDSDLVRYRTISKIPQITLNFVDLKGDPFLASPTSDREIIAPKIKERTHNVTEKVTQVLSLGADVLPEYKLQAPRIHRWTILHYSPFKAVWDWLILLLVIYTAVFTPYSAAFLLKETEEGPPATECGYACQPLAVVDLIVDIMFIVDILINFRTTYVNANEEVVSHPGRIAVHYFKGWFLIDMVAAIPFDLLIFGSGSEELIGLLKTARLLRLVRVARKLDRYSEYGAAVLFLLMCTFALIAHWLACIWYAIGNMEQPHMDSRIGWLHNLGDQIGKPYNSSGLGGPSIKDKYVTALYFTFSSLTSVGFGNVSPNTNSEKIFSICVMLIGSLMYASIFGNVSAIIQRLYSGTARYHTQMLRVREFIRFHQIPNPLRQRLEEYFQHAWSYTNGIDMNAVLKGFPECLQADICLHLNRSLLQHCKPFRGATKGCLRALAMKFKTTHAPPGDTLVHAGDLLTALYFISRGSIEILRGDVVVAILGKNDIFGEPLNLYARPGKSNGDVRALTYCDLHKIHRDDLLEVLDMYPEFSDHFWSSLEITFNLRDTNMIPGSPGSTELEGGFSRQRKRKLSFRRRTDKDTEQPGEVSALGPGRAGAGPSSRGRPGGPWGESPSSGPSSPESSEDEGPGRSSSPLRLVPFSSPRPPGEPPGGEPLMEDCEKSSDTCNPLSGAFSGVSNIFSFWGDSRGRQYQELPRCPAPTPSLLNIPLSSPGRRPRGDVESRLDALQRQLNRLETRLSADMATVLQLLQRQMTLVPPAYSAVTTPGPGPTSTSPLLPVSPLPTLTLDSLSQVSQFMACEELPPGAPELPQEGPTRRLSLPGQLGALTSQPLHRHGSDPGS
row,SMILES,"hERG current change (%, negative = inhibition) at 10uM"
1,COc1ccc(Cl)cc1NC(=O)Nc1cn(C)nc1C,8.86%
2,COc1cc(NC(=O)C23CC4CC(C2)CC(n2cnc([N+](=O)[O-])n2)(C4)C3)cc(OC)c1,-66.7%
3,Cc1noc(/C=C/N(C)C)c1S(=O)(=O)N1CCCC(C(=O)NC(C)c2ccccc2)C1 (centres unmarked),-7.54%
4,CCCCNCCOc1ccccc1-c1ccccc1.O=C(O)C(=O)O,-28.2%
5,CCC(C(=O)NCC1CCCO1)N(Cc1ccccc1)C(=O)CNS(=O)(=O)c1ccccc1 (centres unmarked),-3.51%
6,CN(C)C(=O)Cn1c(SCC(=O)NC2CCCCC2)nc2ccccc21,7.7%
7,COc1ccc(-c2c3c(=O)n(C)c(=O)n(C)c3cn2-c2ccccc2O)cc1,-9.54%
8,COc1ccccc1NC(=O)CSC(N)=O,17.3%
9,CCc1ccc2c(c1)C(=O)C[C@]1(CCC[C@H](C)C1)O2,-13.8%
10,Nc1ccc2nc(CCc3ccccc3)[nH]c2c1,-13.1%
11,CSc1nnc(-c2ccco2)c(-c2ccco2)n1,2.75%
12,Cc1noc(C)c1COc1ccc(C(=O)OCC(=O)Nc2ccc3ccccc3c2)cc1,3.18%
13,O=C(Nc1nnc(CCN2CCOCC2)s1)C1CCCCC1,7.59%
14,CCOc1ccc(C2c3cc(OC)c(OC)cc3CC(=O)N2c2ccc(OC)cc2)cc1 (centres unmarked),-9.16%
15,CCCN(CC1CC1)CC(O)c1ccccc1.O=C(O)C(=O)O (centres unmarked),4.51%
16,COCC1CCN(C(=O)C2CCC(=O)N(CCc3cccc(F)c3)C2)CC1 (centres unmarked),6.39%
17,CCCCCCC(C)(C)c1ccc([C@@H]2C[C@H](O)CC[C@H]2CCCO)c(O)c1,-26.6%
18,O=C(O)C1CCCCC1C(=O)N1CC=C(c2ccccc2)CC1 (centres unmarked),-8.6%
19,CCCn1nc(C(=O)NNC(=O)C2CSC3(C)CCC(=O)N23)c2ccccc2c1=O (centres unmarked),5.35%

row,SMILES,"hERG current change (%, negative = inhibition) at 10uM"
1,Fc1ccc(-c2cc(C(F)(F)F)nc(NCC3CCCO3)n2)cc1 (centres unmarked),-3.65%
2,O=C(CN1CCN(S(=O)(=O)c2ccccc2)CC1)Nc1ccc(Cl)cn1,-29.5%
3,O=C(NC1CCCC1)C(c1ccsc1)N(Cc1ccccc1)C(=O)Cc1cccs1 (centres unmarked),-29.9%
4,CC1CCN(C(=O)CSc2nnc(CNC(=O)COc3ccc(Cl)cc3)o2)CC1,-13.1%
5,COc1ccc(C(=O)Nc2cccc(-c3csc(C)n3)c2)cc1S(=O)(=O)N1CCCC1,-16.1%
6,CCOC(=O)CC1NCCc2c1[nH]c1ccc(OC)cc21.Cl (centres unmarked),-0.727%
7,CC(C1CCN(Cc2cn(C)nc2-c2cccc(Cl)c2)CC1)N1CCOCC1 (centres unmarked),-26.9%
8,Cc1ccc2c(O)c(C)c(=O)[nH]c2n1,24.3%
9,COc1ccccc1NC(=O)N1CCCC1C(=O)NC1CCCCC1 (centres unmarked),9.76%
10,CC1CN(C)C(C)CC1NCc1ccc2c(c1)OCO2 (centres unmarked),2.23%
11,Cc1ccc(Cl)cc1N1CCN(S(=O)(=O)c2ccc3c(c2)oc(=O)n3C)CC1,-1.03%
12,Cc1cc(=O)oc2cc(OCc3ccc(C(=O)N4CCN(c5ccccc5)CC4)cc3)ccc12,12.3%
13,Cc1ccc(C)c(NC(=O)C2C(c3ccccc3)C2(Cl)Cl)c1 (centres unmarked),-0.995%
14,Clc1ccc(CSc2snnc2-c2ccccc2)c(Cl)c1,2.83%
15,Cc1csc(SCC(=O)NCc2ccccc2Cl)n1,-4.12%
16,CN=C(c1ccco1)n1c(=S)nc(-c2ccco2)n(C)c1=S,9.7%
17,COc1ccccc1C(=O)NC(=S)Nc1ccc(N2CCCC2)cc1,3.11%
18,Cc1ccccc1OCCC(=O)OCC(=O)NC1CCCCC1,-12.2%
19,CN(C)S(=O)(=O)c1cccc(NC(=O)C2Cc3ccccc3CN2C(=O)c2ccco2)c1 (centres unmarked),-30.4%

row,SMILES,"hERG current change (%, negative = inhibition) at 10uM"
1,COC(=O)c1ccccc1NC(=O)CN1CCC(C(=O)c2ccc3c(c2)OCCO3)CC1,11.2%
2,Cc1ccc(C)c(S(=O)(=O)Nc2ccc(C(=O)NCCCN3CCCC3=O)cc2)c1,10.1%
3,Cc1cc(CN2CCC(N3CCC(C(=O)NC4CC4)CC3)CC2)cc(C)c1O,10.6%
4,CCN1/C(=C(\O)c2ccccc2)C(=O)c2ccccc2S1(=O)=O,6.32%
5,Cc1ccc(CNC(=O)C(Cc2ccccc2)n2cccc2)cc1 (centres unmarked),-9.77%
6,Cc1ccc(-c2nc(C#N)c(NCCN3CCCCC3)o2)cc1,-55.8%
7,O=c1cc(NCc2ccccc2)nc2n1CCCS2,-0.847%
8,COC(=O)/C(=C\Nc1ccc(Cl)c2ccccc12)c1ncc(C(F)(F)F)cc1Cl,16.6%
9,Cc1cccc(NC(=O)C(=O)NCc2ccccn2)c1,-6.54%
10,COc1cc(/C=C/C(=O)N2CCN(Cc3ccccc3)CC2)cc(OC)c1OC,7.2%
11,CCC(C)(C)NC(=O)c1cc(C(=O)OC)cc([N+](=O)[O-])c1,-18%
12,CCN(C(=O)CN1CCOCC1)c1c(N)n(Cc2ccccc2)c(=O)[nH]c1=O,22.2%
13,COc1ccc(CCNC(=O)c2ccc3c(SCC(=O)O)c4c(nc3c2)CCCC4)cc1OC,13.9%
14,CN(c1ccc(C(=O)NCc2cccs2)cc1)S(=O)(=O)c1ccccc1,5.17%
15,Cc1cccc(NC(=O)CN2C(=O)CCSc3ccc(S(=O)(=O)N4CCOCC4)cc32)c1C,4.82%
16,CCOC(=O)c1c(C)[nH]c(C)c1C(=O)CN1C(=O)NC(CC(C)C)C1=O (centres unmarked),10%
17,Cc1cc(S(=O)(=O)N2CCCC2)ccc1OCC(=O)NCc1ccccn1,4.98%
18,CN(C)c1ccc(/C=N\Nc2ccccn2)cc1,-5.86%
